In patent US7416885B2, “Proliferated cell lines and uses thereof” (University of South Florida, priority 2002, dated 2008):

System: murine neural cell lines (CNH, CTb)
[1] = glutamatergic and cholinergic stimuli

Row | Structure (SMILES) | intracellular Ca2+ response | intracellular Ca2+ response [1]
1 | Cc1o[nH]c(=O)c1CC(N)C(=O)O (centres unmarked) [AMPA] | increase in intracellular Ca^2+ | 
2 | CN[C@H](CC(=O)O)C(=O)O [NMDA] | increase in intracellular Ca^2+ | 
3 | N[C@@H](CCC(=O)O)C(=O)O [glutamate] |  | increase in intracellular Ca^2+
4 | C=C(C)[C@H]1CN[C@H](C(=O)O)[C@H]1CC(=O)O [kainite] | increase in intracellular Ca^2+ | 
5 | CN1CCCC1c1cccnc1 (centres unmarked) [nicotine] |  | increase in intracellular Ca^2+

Like-named read-outs stand apart in the source and are kept apart here.
